Laboratory results reported in PubChem BioAssay AID1963844 (Molecular Pharmacology Branch, DTP, NCI, 2024).
Certain results were filed several times, with different values. They are shown here; other results are not. There may be further records. Results that share an entry repeat one measurement across runs, samples, wells, individuals or studies. Signs of the kind (2×) say how often a value occurs here. A date in brackets names the month of the test.

system: 422866-222-R5-J1-PDC complex spheroid viability; test: Anticancer human tumor 422866-222-R5-J1-PDC patient-derived pancreatic adenocarcinoma cell line growth inhibition [POLQ]; settings: compound alone 0.0316 µM; stronger effect = lower value
Method: Multicellular complex tumor spheroid response to Polymerase (POL) inhibitors (novobiocin, ART-558, RP6685) in combination with a variety of drugs and investigational agents in selected tumor cell lines
The POL inhibitors (novobiocin, ART-558, and RP6685) were evaluated both individually and in combination with standard of care and investigational anticancer small molecules within a complex spheroid model of solid tumors. . Complex spheroids include a stromal component modeled by human endothelial cells (HUVEC) and fibroblasts modeled by human mesenchymal stem cells (MSCs). The concentration ranges selected for each drug and investigational agent were based upon clinically achievable concentrations if the clinical Cmax of the agent was known.
Compounds. The drugs and investigational agents: novobiocin (NSC847541), ART-558 (NSC835418), RP-6685 (NSC848927), peposertib (NSC802822), ceralasertib (NSC780249), elimusertib (NSC800525), camonsertib (NSC841442), AZD-1390 (NSC803789), olaparib (NSC753686), talazoparib (NSC767125), rucaparib (NSC756644), sotorasib (NSC818433), MRTX-1133 (NSC836407), SN-38 (NSC673596), topotecan (NSC609699), epotoside (NSC141540), doxorubicin (NSC123127), gemcitabine (NSC613327), 5-fluorouracil (NSC19893), paclitaxel (NSC125973), vemurafenib (NSC761431), MSA-2 (NSC828583), SN-011 (NSC837082), adavosertib (NSC754352), prexasertib (NSC758257), carboplatin (NSC241240) and oxaliplatin (NSC266046), were obtained from the National Cancer Institute (NCI) Developmental Therapeutics Program Chemical Repository (21). The FDA-approved anticancer drug set is available from the Developmental Therapeutics Program at https://dtp.cancer.gov/organization/dscb/obtaining/. […] The stock solutions were prepared in dimethyl sulfoxide (DMSO, Sigma-Aldrich, St. Louis, MO, cat. D2650), except for the platinum compounds which were prepared in saline (Quality Biological, Gaithersburg, MD, cat. 114-055-101), at 800-fold the tested concentration and stored at -70 degrees C prior to their use. All drugs and investigational agents were tested over a range starting from a high concentration at or near the clinical Cmax and decreasing in half-log increments. If the clinical Cmax for an agent had not been determined, the highest concentration tested was 10 microM, except for SN-38, which was tested at a high concentration of 1 microM.
Cell Culture. All cells were maintained in an incubator at 37 degrees C and 5% CO2 with 95% humidity. The PDC lines were cultured according to standard operating procedures established by the NCI PDMR (https://pdmr.cancer.gov). Table 3 of the manuscript, lists the cell lines along with the number of the three cell types plated to form the mct-spheroids and media for tumor cell growth. After thawing, all PDC lines, except 997537-175-T-J1-PDC and 415267-285-R-J2-PDC, were cultured in Matrigel-coated flasks prepared with a working solution of 1X Ham's F-12 nutrient mix, without supplementation (Thermo Fisher Scientific, cat. 11765054), 100 U/mL penicillin-streptomycin (Thermo Fisher Scientific, cat. 15140122), and 2.5% Matrigel (Corning Inc., Corning, NY, cat. 354248) for the first three passages. The two PDC lines 997537-175-T-J1-PDC and 415267-285-R-J2-PDC were cultured on uncoated flasks. The 857933-349-R-J2-PDC line was cultured in 6C/Colon 1B media containing advanced DMEM/F-12 (Thermo Fisher Scientific, cat. 12634028), 10 mM HEPES (Thermo Fisher Scientific, cat. 15630080), 1X GlutaMAX supplement (Thermo Fisher Scientific, cat. 35050061), 0.1 mg/mL primocin (InvivoGen, San Diego, CA, cat. ant-pm-2), 10% defined fetal bovine serum, heat inactivated (HyClone Laboratories Inc., Logan, UT, cat. SH30070.03HI), 50% L-WRN conditioned media (ATCC, cat. CRL-3276), 1.25 mM N-Acetyl-L-cysteine (Sigma-Aldrich, cat. A9165), 10 mM nicotinamide (Sigma-Aldrich, cat. N0636), 1X B-27 supplement (Thermo Fisher Scientific, cat. 17504044), 1X N-2 supplement (Thermo Fisher Scientific, cat. […]
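Further: spheroids exposed to compounds for one week before readout.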
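Wherever viability, T/C is given: percent of DMSO vehicle wells luminescence so 100% = untreated viability.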

SMILES | viability, T/C
Cc1cccc(N(C)C(=O)C2C(O)CCN2c2nc(C)cc(C(F)(F)F)c2C#N)c1 (stereo unspecified) | 108, 89.4, 99.4, 80, 85.8, 95.4, 107, 96.1% [2023-11] and 89.3, 88.1, 85.6, 95.6, 81.9% [2023-12]
COC1C(OC(N)=O)C(O)C(Oc2ccc3c(O)c(NC(=O)c4ccc(O)c(CC=C(C)C)c4)c(=O)oc3c2C)OC1(C)C (stereo unspecified) | 103 (2×), 87, 35.1, 92.9, 81.4, 94.6, 95.1, 97.9, 96.7, 98.4, 98.1, 91.1%

same assay, conditions: compound alone 0.1 µM; stronger effect = lower value

SMILES | viability, T/C
COC1C(OC(N)=O)C(O)C(Oc2ccc3c(O)c(NC(=O)c4ccc(O)c(CC=C(C)C)c4)c(=O)oc3c2C)OC1(C)C (stereo unspecified) | 95.3, 99.5, 33.2, 107, 103, 104 (2×), 92.5, 102, 98, 97.1, 87.8, 94.6%
COc1cccc2c1C(=O)c1c(O)c3c(c(O)c1C2=O)CC(O)(C(=O)CO)CC3OC1CC(N)C(O)C(C)O1 (stereo unspecified) | 95.8%, 50.8% [2023-11] and 46.8% [2023-12]

same assay, conditions: compound alone 0.316 µM; stronger effect = lower value

SMILES | viability, T/C
COC1C(OC(N)=O)C(O)C(Oc2ccc3c(O)c(NC(=O)c4ccc(O)c(CC=C(C)C)c4)c(=O)oc3c2C)OC1(C)C (stereo unspecified) | 103 (3×), 97.9, 35.9, 93.5, 106, 86.5, 101, 99.2, 96.5, 105, 93.4%
CNCc1ccc(-c2[nH]c3cc(F)cc4c3c2CCNC4=O)cc1 | 101%, 74.8% [2023-11] and 99% [2023-12]
Nc1ccc(C#CCN(C(=O)Cc2ncc(C(F)(F)F)cc2C(F)(F)F)c2ccc(F)cc2)nn1 | 84.5, 101, 90.2, 91.5, 111, 102, 88.7, 109, 110, 89.9, 86.9, 94.3, 103%
O=C(c1cc(Cc2n[nH]c(=O)c3ccccc23)ccc1F)N1CCN(C(=O)C2CC2)CC1 | 103%, 90% [2023-11] and 74.3% [2023-12]

same assay, conditions: compound alone 1 µM; stronger effect = lower value

SMILES | viability, T/C
Cc1cccc(N(C)C(=O)C2C(O)CCN2c2nc(C)cc(C(F)(F)F)c2C#N)c1 (stereo unspecified) | 97.9, 86.6, 102, 87.9, 96, 103, 101, 110% [2023-11] and 95.5, 84.9, 102, 89.8, 95.4% [2023-12]
COC1C(OC(N)=O)C(O)C(Oc2ccc3c(O)c(NC(=O)c4ccc(O)c(CC=C(C)C)c4)c(=O)oc3c2C)OC1(C)C (stereo unspecified) | 97.8, 102 (2×), 38.1, 95.8 (2×), 104 (2×), 93.7, 85.3, 87.4, 97, 95.1%
CC(C)n1c(=O)n(C)c2cnc3cc(F)c(-c4ccc(OCCCN5CCCCC5)nc4)cc3c21 | 91.1%, 114% [2023-11] and 85.5% [2023-12]
COc1cc2cc(C(=O)CCC(=O)O)sc2cc1OC | 96.7% [2023-11] and 120%, 90.1% [2023-12]

same assay, conditions: compound alone 3.16 µM; stronger effect = lower value

SMILES | viability, T/C
Cc1cccc(N(C)C(=O)C2C(O)CCN2c2nc(C)cc(C(F)(F)F)c2C#N)c1 (stereo unspecified) | 104 (2×), 97.8, 87.8, 92.1, 110, 92, 101% [2023-11] and 104, 106, 99.3, 101, 116% [2023-12]
COC1C(OC(N)=O)C(O)C(Oc2ccc3c(O)c(NC(=O)c4ccc(O)c(CC=C(C)C)c4)c(=O)oc3c2C)OC1(C)C (stereo unspecified) | 105, 93.4, 40.3, 108 (2×), 100, 97.2, 101 (3×), 104, 95.6, 115%
O=C(c1cc(Cc2n[nH]c(=O)c3ccccc23)ccc1F)N1CCN(C(=O)C2CC2)CC1 | 105%, 88.2% [2023-11] and 76% [2023-12]
CCc1cc2c(N3CCc4c(cc(Cn5ccnc5)cc4-c4cn(C)nc4C(F)(F)F)C3=O)cc(C)nc2c(OC)n1 | 143% [2023-11] and 95.4%, 97.2% [2023-12]

same assay, conditions: compound alone 10 µM; stronger effect = lower value

SMILES | viability, T/C
CCCS(=O)(=O)Nc1ccc(F)c(C(=O)c2c[nH]c3ncc(-c4ccc(Cl)cc4)cc23)c1F | 92.6% [2023-11] and 97.1%, 121% [2023-12]
COC1C(OC(N)=O)C(O)C(Oc2ccc3c(O)c(NC(=O)c4ccc(O)c(CC=C(C)C)c4)c(=O)oc3c2C)OC1(C)C (stereo unspecified) | 103 (2×), 101 (2×), 40, 91.4, 111, 102, 105, 98.1, 98.8, 96.7, 95.2%
O=C(c1cc(Cc2n[nH]c(=O)c3ccccc23)ccc1F)N1CCN(C(=O)C2CC2)CC1 | 110%, 71.1% [2023-11] and 56.6% [2023-12]
COc1cc2cc(C(=O)CCC(=O)O)sc2cc1OC | 115% [2023-11] and 117%, 88.9% [2023-12]

same assay, conditions: compound alone; run of 11/27/2023

SMILES | IC50
COC1C(OC(N)=O)C(O)C(Oc2ccc3c(O)c(NC(=O)c4ccc(O)c(CC=C(C)C)c4)c(=O)oc3c2C)OC1(C)C (stereo unspecified) | < 31.6 nM and > 10 µM
